Test results published in the supplement of paper PMC10126150.
Sequences with one replicate were seen in a single cluster, so their values are uncertain.

Tested on: ATP
Assay: switch fluorescence ratio, 500 uM ATP over buffer (Cy3 cluster intensity, sum of 5 cycles each) (fold (ratio)); higher = stronger signal-on switching upon ATP binding; sequences stand for … in TCGTCGGCAGCGTCAGATGTGTATAAGAGACAGTTTTTTTTTTTTTTTTTTTTTTTTT…TC
Settings: aptamer strand: ATP DNA aptamer (quencher-CACCTGGGGGAGTATTGCGGAGGAAGG + anchor), 100 nM annealed; ATP concentration: 500 uM; one replicate
In short: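 Five buffer/ATP imaging cycles were run on Cy3-labelled switching-strand clusters on a modified Illumina MiSeq flow-cell, with NaOH stripping and re-annealing between cycles. In each cycle, clusters annealed to 100 nM quencher-labelled ATP aptamer were imaged in selection buffer, then after 15 min with 500 uM ATP at 22 °C. Per cluster, the fluorescence ratio is summed target-cycle over summed buffer-cycle Cy3 intensity, averaged per switch-domain sequence. Only clusters within 100-1000 RFU were kept.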
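Also: ATP exposure 15 min at 22 °C before imaging.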

| Sequence | switch fluorescence ratio |
| --- | --- |
| CCTCTTTCTG | 1.02 |
| AAACATTATG | 0.949 |
| AATCCGTGG | 1.05 |
| GGGGGTTACT | 0.983 |
| CTTTGCTGGG | 0.947 |
| GTCATGCGTC | 1.03 |
| TGTAGGGAAT | 1.02 |
| CAAACTGATT | 1.04 |
| TGAAGTGCTA | 1.04 |
| TATGGTAAA | 0.957 |
| TAATGTGGCA | 1.02 |
| TAGTTTCGCT | 1.02 |
| ATAAGGCCAT | 0.994 |
| AGTTTTCTGC | 1.14 |
| CGAGCACGTC | 1.1 |
| CGGGTTAACA | 1.04 |
| GAATTAGGGG | 1.03 |
| AATTTTACCA | 1.06 |
| CCTGATTGTT | 1 |
| TAATCACATT | 1 |
| TGGTTCCGG | 0.979 |
| AAGGAGACTC | 1.03 |
| GGCTTCCGA | 2.28 |

| Sequence | switch fluorescence ratio |
| --- | --- |
| CGTTGCGATT | 1.03 |
| GAGGATATTT | 0.983 |
| GAAGTGCATG | 0.992 |
| AGGGTTCACG | 1.02 |
| CATTGGGCCC | 0.989 |
| AATGATTACT | 1.01 |
| GAAGCGGGTT | 1.01 |
| TTTAGTATTG | 0.997 |
| ATCAGGAGA | 1 |
| AGCGACACGA | 1.12 |
| GTGGCATTCA | 1 |
| CGTGGTCAGT | 1.05 |
| TTAGCAGTTT | 0.977 |
| GAGTCTGTAA | 1.52 |
| GTCCCTGGGT | 1.02 |
| AGACGGTCCT | 1 |
| CGGGCGCTCT | 1.03 |
| GTTTTAGCAA | 1.15 |
| TAAGGGTTCC | 1.01 |
| CTGCGATATG | 1.51 |
| TTGTAGGGGC | 1.04 |
| AATATATAAC | 0.985 |
| AGTGTGCGAT | 0.981 |

| Sequence | switch fluorescence ratio |
| --- | --- |
| CTAACATGCT | 0.926 |
| TCTGCGCGA | 1.82 |
| AAGCTATGCC | 0.986 |
| CCTAACTAGG | 1.01 |
| GCGCACGGGA | 1.03 |
| TTTCAATCCT | 1.08 |
| CTCGATTAGC | 1.01 |
| GCATTGTCGG | 0.969 |
| TATCTGCAGG | 1.05 |
| TACGAGGGAA | 1.02 |
| GACCCAGATC | 1 |
| AGATCACAGC | 1 |
| AAAGTTATCG | 0.981 |
| GTCAGAATAG | 0.979 |
| TACACACTGA | 1.39 |
| GGTTATAT | 0.999 |
| ATTGTATGGC | 1.01 |
| CGTGGCTCGG | 1.01 |
| ATTGACTAGG | 0.934 |
| GAAATTACCT | 1.48 |
| TTGATATGGC | 0.953 |
| GTGTAACCCA | 0.972 |
| TTTGAAATAG | 0.993 |

| Sequence | switch fluorescence ratio |
| --- | --- |
| TCAGGGGAAT | 0.978 |
| GATAGTGTAA | 0.961 |
| CGCAATAACT | 1.76 |
| ACTGGCTTAT | 1.04 |
| GTTCTATTTT | 1 |
| CGTTTTAATT | 1.02 |
| GGACTAAGTT | 0.991 |
| TTCGTTAATC | 1.01 |
| CCAGGATTGT | 1 |
| TAAACCGTAT | 1.06 |
| CGCTTGTAGT | 1.03 |
| GTCTGTTTT | 1.02 |
| ATCTAGACAC | 1.02 |
| AGATGTGCCC | 0.972 |
| GCGCAACGCT | 1.05 |
| CCAGAGGCGC | 1.04 |
| AAACGGGTA | 1.05 |
| CAAACCCCGC | 1.67 |
| GATTTTGCCC | 0.998 |
| ATTCTTTTGA | 0.973 |
| ATGGGTAAAA | 1.03 |
| AATTGTTGCA | 1.01 |
| ACTCAAGGGG | 1.06 |

| Sequence | switch fluorescence ratio |
| --- | --- |
| GGAATCAGGC | 0.977 |
| GTTTCACCGT | 0.963 |
| CGCTGGTCGG | 1.02 |
| GTGACGCTTG | 1.01 |
| GTATGAGCGA | 1.03 |
| ATCTTTTCAC | 1.01 |
| GCAGCAACTA | 2.73 |
| AATTTTCTGG | 0.993 |
| CTGGCATGTG | 1.02 |
| CTCGGAATAG | 3.78 |
| TGGAGTAG | 0.997 |
| TTCGCCCCGA | 1.01 |
| CGCAACTATT | 1.93 |
| CATGGTGCTT | 1.03 |
| AGCATAAGAC | 1.91 |
| GCTCTTTACT | 1.05 |
| AGCATGGGTT | 0.999 |
| GCTCTCCTGG | 1.32 |
| TGGCCGTCTA | 0.986 |
| CCGCAGGA | 1.24 |
| ATCTCATTTC | 1.87 |
| CGAGGCACTG | 1.08 |
| GGTCTCCTGA | 1.02 |

| Sequence | switch fluorescence ratio |
| --- | --- |
| CGAATTACCT | 1.25 |
| GCGTTCACGT | 0.972 |
| GGCGAGGGCA | 1.04 |
| CTTCCCAAGG | 4.15 |
| AGTGTTTGGA | 1.06 |
| TTCAGGGCCT | 1.05 |
| ACAGTAAGGT | 1.03 |
| TGGGTCCAGA | 0.966 |
| TTTCAGAGAG | 0.967 |
| TAGTGGCCCG | 0.979 |
| CATGGGACGA | 1.02 |
| AAACGTAGGG | 1.03 |
| ATCGCTCAAT | 1.01 |
| GCGTACTCTT | 1.08 |
| TCTTTAGAGG | 0.995 |
| CTGAGGACCC | 0.939 |
| CGGGCGGACT | 1 |
| ATATCTGGTT | 1.01 |
| AGAAAAACA | 0.993 |
| AGACACTTAT | 0.984 |
| GACATCCGTG | 1.05 |
| AAATATGTGA | 0.999 |
| TGACTTAGGC | 1.01 |

| Sequence | switch fluorescence ratio |
| --- | --- |
| GGAAGTAGAA | 0.989 |
| GTGATGGCGA | 1.08 |
| AACAGGATCT | 1.02 |
| ATTACCGCCA | 1.36 |
| ACGTGAACGT | 1.04 |
| CTGTTAACAC | 1.03 |
| ATCAAATCTT | 1.03 |
| TCCAGTGGGT | 1.01 |
| GGTGCGTGGC | 0.994 |
| GGTGAGGACG | 0.949 |
| GTGTATCTG | 0.997 |
| GTGATCCGCT | 1.13 |
| TGGTTATTCC | 0.963 |
| ACACTTTTTG | 0.988 |
| ATCGTCCTGC | 1.05 |
| CTCAGCAGGA | 1.43 |
| CGAGTCTGCG | 0.974 |
| TATGTCACTC | 1.07 |
| TGTCACGTTG | 1.07 |
